# Data from the supplement of paper PMC8728848.
# The other results are listed elsewhere or left out.
# B1: Glycodelin A (Homo sapiens), P09466 (protein)
# chain: MLCLLLTLGVALVCGVPAMDIPQTKQDLELPKLAGTWHSMAMATNNISLMATLKAPLRVHITSLLPTPEDNLEIVLHRWENNSCVEKKVLGEKTENPKKFKINYTVANEATLLDTDYDNFLFLCLQDTTTPIQSMMCQYLARVLVEDDEIMQGFIRAFRPLPRHLWYLLDLKQMEEPCRF
# How the values were obtained:
# Test in all cases: glycan array binding signal (z-score within array); higher = stronger binding
# Conditions in all cases: glycan notation: IUPAC condensed, linker removed
# [1] = target: Fuc(a1-2)Gal
# Procedure, shortened: (§1)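 Negative Z-scores can be read as non-binding. The Z-score is calculated within each array and then averaged across arrays of one protein sequence at different concentrations or buffers and across linkers. Arrays, 3228 in all, were curated from the Consortium for Functional Glycomics database and kept only where the protein sequence was available.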
# [2] = target: Fuc(a1-2)Gal(b1-3)GalNAc
# Procedure, shortened: as §1
# [3] = target: Fuc(a1-2)Gal(b1-3)GalNAc(b1-3)Gal
# Procedure, shortened: as §1
# [4] = target: Fuc(a1-2)Gal(b1-3)GalNAc(b1-3)Gal(a1-4)Gal(b1-4)Glc
# Procedure, shortened: as §1
# [5] = target: Fuc(a1-2)Gal(b1-3)GalNAc(b1-4)[Neu5Ac(a2-3)]Gal(b1-4)Glc
# Procedure, shortened: as §1
# [6] = target: Fuc(a1-2)Gal(b1-3)GlcNAc
# Procedure, shortened: as §1
# [7] = target: Fuc(a1-2)Gal(b1-3)GlcNAc(b1-3)Gal(b1-4)Glc
# Procedure, shortened: as §1
# [8] = target: Fuc(a1-2)Gal(b1-3)[Fuc(a1-4)]GlcNAc
# Procedure, shortened: as §1
# [9] = target: Fuc(a1-2)Gal(b1-4)Glc
# Procedure, shortened: as §1
# [10] = target: Fuc(a1-2)Gal(b1-4)Glc6S
# Procedure, shortened: as §1
# [11] = target: Fuc(a1-2)Gal(b1-4)GlcNAc
# Procedure, shortened: as §1
# [12] = target: Fuc(a1-2)Gal(b1-4)GlcNAc(b1-3)Gal(b1-4)GlcNAc
# Procedure, shortened: as §1
# [13] = target: Fuc(a1-2)Gal(b1-4)GlcNAc(b1-3)Gal(b1-4)GlcNAc(b1-3)Gal(b1-4)GlcNAc
# Procedure, shortened: as §1
# [14] = target: Fuc(a1-2)Gal(b1-4)GlcNAc6S
# Procedure, shortened: as §1
# [15] = target: Fuc(a1-2)Gal(b1-4)[Fuc(a1-3)]GlcNAc
# Procedure, shortened: as §1
# [16] = target: Fuc(a1-2)Gal(b1-4)[Fuc(a1-3)]GlcNAc(b1-3)Gal(b1-4)[Fuc(a1-3)]GlcNAc
# Procedure, shortened: as §1
# [17] = target: Fuc(a1-2)Gal(b1-4)[Fuc(a1-3)]GlcNAc(b1-3)Gal(b1-4)[Fuc(a1-3)]GlcNAc(b1-3)Gal(b1-4)[Fuc(a1-3)]GlcNAc
# Procedure, shortened: as §1
# [18] = target: Fuc(a1-2)Gal6S(b1-4)Glc
# Procedure, shortened: as §1
# [19] = target: Fuc(a1-2)Gal6S(b1-4)Glc6S
# Procedure, shortened: as §1
# [20] = target: Fuc(a1-2)Gal6S(b1-4)GlcNAc
# Procedure, shortened: as §1
# [21] = target: Fuc(a1-2)[Gal(a1-3)]Gal
# Procedure, shortened: as §1
# [22] = target: Fuc(a1-2)[Gal(a1-3)]Gal(b1-3)GlcNAc
# Procedure, shortened: as §1
# [23] = target: Fuc(a1-2)[Gal(a1-3)]Gal(b1-4)Glc
# Procedure, shortened: as §1
# [24] = target: Fuc(a1-2)[Gal(a1-3)]Gal(b1-4)GlcNAc
# Procedure, shortened: as §1
# [25] = target: Fuc(a1-2)[Gal(a1-3)]Gal(b1-4)[Fuc(a1-3)]GlcNAc
# Procedure, shortened: as §1
# [26] = target: Fuc(a1-2)[Gal(a1-4)]Gal(b1-4)GlcNAc
# Procedure, shortened: as §1
# [27] = target: Fuc(a1-2)[GalNAc(a1-3)]Gal
# Procedure, shortened: as §1
# [28] = target: Fuc(a1-2)[GalNAc(a1-3)]Gal(b1-3)GlcNAc
# Procedure, shortened: as §1
# [29] = target: Fuc(a1-2)[GalNAc(a1-3)]Gal(b1-4)Glc
# Procedure, shortened: as §1
# [30] = target: Fuc(a1-2)[GalNAc(a1-3)]Gal(b1-4)GlcNAc
# Procedure, shortened: as §1
# [31] = target: Fuc(a1-2)[GalNAc(a1-3)]Gal(b1-4)[Fuc(a1-3)]GlcNAc
# Procedure, shortened: as §1
# [32] = target: Fuc(a1-2)[GalNAc(a1-4)]Gal(b1-4)GlcNAc
# Procedure, shortened: as §1
# [33] = target: Fuc(a1-2)[GalNAc(b1-3)]Gal
# Procedure, shortened: as §1
# [34] = target: Fuc(a1-3)GlcNAc
# Procedure, shortened: as §1
# [35] = target: Fuc(a1-3)[Gal(b1-4)]Glc6S
# Procedure, shortened: as §1
# [36] = target: Fuc(a1-3)[Gal(b1-4)]GlcNAc
# Procedure, shortened: as §1
# [37] = target: Fuc(a1-3)[Gal(b1-4)]GlcNAc(b1-2)Man(a1-3)[Fuc(a1-3)[Gal(b1-4)]GlcNAc(b1-2)Man(a1-6)]Man(b1-4)GlcNAc(b1-4)GlcNAc
# Procedure, shortened: as §1
# [38] = target: Fuc(a1-3)[Gal(b1-4)]GlcNAc(b1-2)Man(a1-6)[Gal(b1-4)GlcNAc(b1-2)Man(a1-3)]Man(b1-4)GlcNAc(b1-4)GlcNAc
# Procedure, shortened: as §1
# [39] = target: Fuc(a1-3)[Gal(b1-4)]GlcNAc(b1-3)Gal(b1-3)[Fuc(a1-4)]GlcNAc
# Procedure, shortened: as §1
# [40] = target: Fuc(a1-3)[Gal(b1-4)]GlcNAc(b1-4)Gal(b1-4)[Fuc(a1-3)]GlcNAc
# Procedure, shortened: as §1
# [41] = target: Fuc(a1-3)[Gal(b1-4)]GlcNAc(b1-4)Gal(b1-4)[Fuc(a1-3)]GlcNAc(b1-4)Gal(b1-4)[Fuc(a1-3)]GlcNAc
# Procedure, shortened: as §1
# [42] = target: Fuc(a1-3)[Gal(b1-4)]GlcNAc6S
# Procedure, shortened: as §1
# [43] = target: Fuc(a1-3)[Gal3S(b1-4)]Glc6S
# Procedure, shortened: as §1
# [44] = target: Fuc(a1-3)[Gal3S(b1-4)]GlcNAc
# Procedure, shortened: as §1
# [45] = target: Fuc(a1-3)[Gal3S(b1-4)]GlcNAc6S
# Procedure, shortened: as §1
# [46] = target: Fuc(a1-3)[GalNAc(b1-4)]GlcNAc
# Procedure, shortened: as §1
# [47] = target: Fuc(a1-4)GlcNAc
# Procedure, shortened: as §1
# [48] = target: Fuc(b1-3)GlcNAc
# Procedure, shortened: as §1
# [49] = target: Gal(a1-2)Gal
# Procedure, shortened: as §1
# [50] = target: Gal(a1-3)Gal
# Procedure, shortened: as §1
# [51] = target: Gal(a1-3)Gal(b1-3)GlcNAc
# Procedure, shortened: as §1
# [52] = target: Gal(a1-3)Gal(b1-4)Glc
# Procedure, shortened: as §1
# [53] = target: Gal(a1-3)Gal(b1-4)GlcNAc
# Procedure, shortened: as §1
# [54] = target: Gal(a1-3)Gal(b1-4)[Fuc(a1-3)]GlcNAc
# Procedure, shortened: as §1
# [55] = target: Gal(a1-3)GalNAc
# Procedure, shortened: as §1
# [56] = target: Gal(a1-3)[Gal(a1-4)]Gal(b1-4)GlcNAc
# Procedure, shortened: as §1
# [57] = target: Gal(a1-4)Gal(b1-4)Glc
# Procedure, shortened: as §1
# [58] = target: Gal(a1-4)Gal(b1-4)GlcNAc
# Procedure, shortened: as §1
# [59] = target: Gal(a1-4)GlcNAc
# Procedure, shortened: as §1
# [60] = target: Gal(a1-6)Glc
# Procedure, shortened: as §1
binder,measurement,setting,value
B1,glycan array binding signal (z-score),[1],-0.459
same,glycan array binding signal (z-score),[2],-0.421
same,glycan array binding signal (z-score),[3],-0.414
same,glycan array binding signal (z-score),[4],-0.485
same,glycan array binding signal (z-score),[5],-0.436
same,glycan array binding signal (z-score),[6],-0.318
same,glycan array binding signal (z-score),[7],-0.436
same,glycan array binding signal (z-score),[8],-0.359
same,glycan array binding signal (z-score),[9],-0.389
same,glycan array binding signal (z-score),[10],-0.412
same,glycan array binding signal (z-score),[11],-0.318
same,glycan array binding signal (z-score),[12],-0.423
same,glycan array binding signal (z-score),[13],-0.263
same,glycan array binding signal (z-score),[14],-0.327
same,glycan array binding signal (z-score),[15],-0.366
same,glycan array binding signal (z-score),[16],1.67
same,glycan array binding signal (z-score),[17],1.67
same,glycan array binding signal (z-score),[18],-0.143
same,glycan array binding signal (z-score),[19],0.059
same,glycan array binding signal (z-score),[20],-0.102
same,glycan array binding signal (z-score),[21],-0.43
same,glycan array binding signal (z-score),[22],-0.538
same,glycan array binding signal (z-score),[23],-0.437
same,glycan array binding signal (z-score),[24],-0.45
same,glycan array binding signal (z-score),[25],-0.422
same,glycan array binding signal (z-score),[26],-0.252
same,glycan array binding signal (z-score),[27],-0.378
same,glycan array binding signal (z-score),[28],-0.415
same,glycan array binding signal (z-score),[29],-0.481
same,glycan array binding signal (z-score),[30],-0.45
same,glycan array binding signal (z-score),[31],-0.439
same,glycan array binding signal (z-score),[32],-0.476
same,glycan array binding signal (z-score),[33],-0.301
same,glycan array binding signal (z-score),[34],-0.334
same,glycan array binding signal (z-score),[35],-0.379
same,glycan array binding signal (z-score),[36],-0.418
same,glycan array binding signal (z-score),[37],0.504
same,glycan array binding signal (z-score),[38],-0.311
same,glycan array binding signal (z-score),[39],-0.319
same,glycan array binding signal (z-score),[40],-0.372
same,glycan array binding signal (z-score),[41],-0.399
same,glycan array binding signal (z-score),[42],-0.274
same,glycan array binding signal (z-score),[43],-0.384
same,glycan array binding signal (z-score),[44],-0.36
same,glycan array binding signal (z-score),[45],-0.41
same,glycan array binding signal (z-score),[46],-0.398
same,glycan array binding signal (z-score),[47],0.667
same,glycan array binding signal (z-score),[48],1.1
same,glycan array binding signal (z-score),[49],-0.246
same,glycan array binding signal (z-score),[50],-0.384
same,glycan array binding signal (z-score),[51],4.32
same,glycan array binding signal (z-score),[52],-0.285
same,glycan array binding signal (z-score),[53],2.51
same,glycan array binding signal (z-score),[54],-0.419
same,glycan array binding signal (z-score),[55],-0.421
same,glycan array binding signal (z-score),[56],-0.381
same,glycan array binding signal (z-score),[57],-0.405
same,glycan array binding signal (z-score),[58],-0.453
same,glycan array binding signal (z-score),[59],-0.459
same,glycan array binding signal (z-score),[60],-0.505
